Experimental data reported in the supplement of paper PMC11417369.
± gives the standard deviation of the averaged measurements. The list shows a part of the results.

System: PfAP2-LT AP2 domain (GST-tagged)
Assay: gcPBM binding intensity (ln(normalized median fluorescence intensity)); higher = stronger DNA binding
Summary of the method: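 In this array assay, P. falciparum DNA-binding domains with a GST tag, expressed in E. coli, were applied for 1 h to primer-extended double-stranded 36-bp intergenic genomic probes and negative controls on an Agilent 4 × 180k array. Bound protein was visualised with Alexa488 anti-GST antibody at 488 nm. Binding intensity is the highest Masliner-normalised natural-log median intensity across replicate spots of either probe orientation.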

Sequence | gcPBM binding intensity (ln)
ATCTTTCGAACATGTACACACAGAAAAAAAAAAAAA [CACACA_site5393] | 8.93 ± 0.46
GTGTAGGCAAAAAGTTGTACGCCTAAAATCTATATA [XGTACX_site8912] | 8.87 ± 0.46
TAAAAAGTATATGGTCGTACACTTTTGATTAATACA [XGTACX_site7804] | 8.6 ± 0.38
TGTATAGGTACAATAATTATAGAGTAATTGACATTA [GTGCAC_negctrl_site183] | 8.65 ± 0.47
GTACATATAAATATTACACACATTTTCATTTTTAAC [CACACA_site1986] | 9.04 ± 0.42
AAATCGAACAAATTATGTACTAAAAAAAAAATTTAT [XGTACX_site6399] | 8.6 ± 0.51
TAGATAAAATTAAAATGTACAAACCTTTTCCCTTAT [XGTACX_site1136] | 8.55 ± 0.4
ATATATATATATATATGTACTTATTTATTTTATATA [XGTACX_site8810] | 9.45 ± 0.18
TATATATATATAAAGGTGCATATCTTTACGTATGTC [GTGCAC_site9665] | 9.26 ± 0.28
ATATATATATATGATACATGCATATATTTTTTCTTC [TGCATGCA_site216] | 9.24 ± 0.23
ATTTTATTTTTTAATAGTACTCATTTTTTATGTGAA [XGTACX_site5494] | 8.56 ± 0.44
TTTTTTTTATCAAATTGTACATATACAAAGGTGATC [XGTACX_site8054] | 8.51 ± 0.43
AGAAATCATCTGAATTGTACTAACAATTTTTTTTAA [XGTACX_site6191] | 8.34 ± 0.49
CCCAATAATTAAACAACACACATATATATCTGTAAT [CACACA_site5667] | 9.39 ± 0.38
AGGGGCGAAACAAAGGTGCTTTTATAAAATATGTAA | 8.69 ± 0.45
ATAAAATGGGCAAACACACACAAAAAAAAGATATAT [CACACA_site1648] | 9.53 ± 0.51
AACTTAAAAAAAAAAAAAAAAAAAAAAAAAAAAAAA [GTGCAC_negctrl_site34] | 8.08 ± 0.31
AGAGAAGAAAACAAAACACACACATATATCTTAATA [CACACA_site8699] | 9.51 ± 0.34
CTTAAATCTACTATTTGTACATATTTTATTATTAAA [XGTACX_site6151] | 8.68 ± 0.46
TATTATAATAAAATATGTACACACATACACACATAT [XGTACX_site2360] | 9.43 ± 0.36
AGAGGGGAAAACATGATGCACTAGTATAACCAAGAA | 9.06 ± 0.49
TAGATATGTCTAAAAAGTACTTTCTATAACAATTCT [XGTACX_site6678] | 8.43 ± 0.47
TTTCCTTATAAAAATACACACAAACTTTCATTAAAA [CACACA_site5953] | 8.48 ± 0.42

Sequence | gcPBM binding intensity (ln)
TCATATTATTATATATGTACATACCAATATATTATA [XGTACX_site2988] | 8.75 ± 0.38
AACACCAAACAAAGGTGTACATATAGGAAAAAATCT [XGTACX_site1006] | 9.07 ± 0.5
TACACGCAGAAACACACACACACACCCATATATATA [CACACA_site637] | 10.1 ± 0.28
TATCACATATTATGATGTACAAAGATTCTGACTAAT [XGTACX_site2770] | 8.63 ± 0.38
TGTTATATATATACAAACATACACATTTATAAACAA [TGCATGCA_negctrl_site235] | 8.75 ± 0.31
AAAAAAAGAAAAAAAACACACACAAATATAAATAAA [CACACA_site8309] | 9.46 ± 0.39
GTTCAAATTCTTATACCTTTTTATTGAGCCATAATA [CACACA_negctrl_site210] | 8.59 ± 0.47
TATTAATTTCTTTTTTCTCATCACTTTCAAAATGAA [CACACA_negctrl_site1055] | 8.21 ± 0.43
TTATGATCATTTATATGTACACATAATTTTTGTGCT [XGTACX_site5568] | 9.03 ± 0.44
AGCATATATTAAACATGTACATAAATATATTATATA [XGTACX_site1451] | 8.89 ± 0.47
TTATTAAATGAAAAATGTACATATAAATGATTATAT [XGTACX_site2788] | 8.61 ± 0.34
GAAATGTGTAGACACGCACACACAAAAAAATATATA [CACACA_site2912] | 9.76 ± 0.45
ATGTATAAACATATATGTACTTAAATAAAATGTTAA [XGTACX_site4044] | 8.85 ± 0.42
TAAAAAAACATATATTGTACGGAGATAATAATTTTT [XGTACX_site2946] | 8.62 ± 0.48
AAAAATAAAAAAATAATAAAATAAAAAATAAAAAAT [TGCATGCA_negctrl_site89] | 8.79 ± 0.71
TATACTGTCAATTCTACACACCATAGGGGGAGCATA [CACACA_site1875] | 9.35 ± 0.18
ATTAAAAGAACAATGTAAAAAAAGCAAATTAAAGAT [TGCATGCA_negctrl_site360] | 8.95 ± 0.57
CACCAATTCATATGCACACACATCTGCATATTATAT [CACACA_site1773] | 9.51 ± 0.31
AAAAAAAAAATACAGGTGCAATAAGAAAAAAATGGT | 9.13 ± 0.47
TATATTAACAAAATGGTGCAATAATTTCTATATTAT [GTGCAC_site9857] | 8.62 ± 0.4
TATACATATTTAATATGTACATAATAATACTTATTC [XGTACX_site6939] | 8.68 ± 0.38
CCAAATTTATAAAGAACACACACATATATATATATA [CACACA_site7900] | 9.93 ± 0.11
AAGCATGTAGAATAATGTACTTGTGATTTTAATATA [XGTACX_site8565] | 8.75 ± 0.51

Sequence | gcPBM binding intensity (ln)
ATATTTTTTGTATGTTGTACATAAAATATACATTTT [XGTACX_site6815] | 8.71 ± 0.33
AGATACTTTTTTAAAAGTACAAAAACTTTCGATATA [XGTACX_site959] | 8.4 ± 0.4
TCTAAAATAGTCCAGAGTACAAGAAACCATAATATA [XGTACX_site5237] | 8.71 ± 0.47
CATACATACATACATACACACATACATATATATATA [CACACA_site8388] | 9.56 ± 0.25
ATATAGGTAATATTTTGTACATATTTTTGGGGTAGT [XGTACX_site5634] | 9.1 ± 0.34
AATTCTTTTTTCAACACACACACACCCGAAAATATA [CACACA_site3111] | 9.66 ± 0.28
TTCTAATATATGCATACACACAAATGTGAATATACA [CACACA_site2142] | 8.94 ± 0.41
AAAAAAAAAAAAAACACACACACACCCAAATATATA [CACACA_site1169] | 10.2 ± 0.44
ATATATTTATTTATATGTACATAATATTTTTCTCAG [XGTACX_site800] | 8.78 ± 0.47
TTTTTTATTACTTTGTGTACTTACACAGAACCTTAT [XGTACX_site6038] | 8.88 ± 0.61
AAAAATGCAATTTAATGTACACATAAGATGTTATTT [XGTACX_site6853] | 8.7 ± 0.43
ATAAAAATATAAACATGTACATAAAAATCTATATAT [XGTACX_site405] | 8.96 ± 0.44
TTGCTTATATTTCTAAAATGTAAAAGACACAAAGGT [XGTACX_negctrl_site225] | 8.54 ± 0.45
AAAAAAGAAACAATCGCATGCAATGTTAATGTACAT [TGCATGCA_site395] | 9.36 ± 0.46
TACGCAAAATAAAATCAAAATATAAGGAAAAAAAAA [TGCATGCA_negctrl_site578] | 8.46 ± 0.57
AGGTGTCATATATGCACACAAAAGTAACACGCACCT [CACACA_site472] | 9.4 ± 0.36
TGAACAACTATTACTGCACACATTCTTACACTATAT [CACACA_site4533] | 9.41 ± 0.45
TTTTTTAAACGTTTAAATAATTAAATATAAATAAAT [CACACA_negctrl_site1567] | 8.16 ± 0.39
GATAATTTTTGCATATGTACTTAAAAATTAAAAATT [XGTACX_site7037] | 8.44 ± 0.4
AAAAAAAAAAAAGGTACTACACACTATTATCAATAG [XGTACX_site161] | 8.73 ± 0.48
GACCTACAAAAAGGCACACATATACTCATACATACA [CACACA_site5232] | 9.09 ± 0.48
ACATTTATTTTGAATGGTACACTATTATTATGAAAT [XGTACX_site4384] | 8.59 ± 0.44
GTGTAATGCTTATCGGTGCATATATATATATATATA | 10.13 ± 0.021

Sequence | gcPBM binding intensity (ln)
TATCTCTACAAAATTTTATTCATTATTCATGTTATA [XGTACX_negctrl_site452] | 8.69 ± 0.44
GTACAATAAGATGTAGCATGCCGTACCTTCACTACG [TGCATGCA_site235] | 8.95 ± 0.54
TAATATTTATCAAGTCGTACATAAAATGTATAATAA [XGTACX_site1103] | 8.7 ± 0.44
ACAAAGAAATATAATACACACAAGAATATATTGGAT [CACACA_site3901] | 9.3 ± 0.48
CAAATAACAAAATAATGTACATTTATACTTTTTTTT [XGTACX_site943] | 8.62 ± 0.47
TATACATATTTGTATTGTACATAAACTAAATCTTCA [XGTACX_site610] | 8.47 ± 0.4
ATACTGTATGAAAGCACACATACTTATTACTAACAT [CACACA_site4164] | 9 ± 0.34
AGGATTATATATTAATGTACCCGCGTTAATTTTTTT [XGTACX_site2878] | 8.93 ± 0.45
AAATAGAGAAATACAAGTACATACTAAACCTATCTA [XGTACX_site1334] | 8.91 ± 0.61
TCTAATAAAATAAATACATGCATACATACATACATA [TGCATGCA_site895] | 8.81 ± 0.32
AAAATTTTTTTTATTTGTACACAATTCGATACATAA [XGTACX_site4804] | 8.59 ± 0.44
TAAATAATCGCATAATGTACATATAATTTTTTTTTT [XGTACX_site4880] | 8.7 ± 0.49
GCTTGGATATATTAATGTACTTATATATTATGTTGT [XGTACX_site3768] | 9.05 ± 0.4
CCAATTCAAATATGCACACAAATTTGAAAACGATTA [CACACA_site3607] | 9.07 ± 0.33
CTTTTGCCCAAAAAGGTACACACCACAATGTACATA [CACACA_site809] | 8.86 ± 0.43
GTTAATATACATAAACGTACAGAATTATTATGAGTT [XGTACX_site5185] | 8.95 ± 0.35
TTTGTTGTTGTGAAACGTACTCATAGGATGTTGTAT [XGTACX_site5716] | 8.83 ± 0.38
ATATTTTCAATGTTCACACATACACAAAAAAAAAAA [CACACA_site6077] | 8.62 ± 0.4
AAAGATGGAGTGATATGTACTGATATATTATTATAT [XGTACX_site6500] | 8.95 ± 0.26
AAGCATAAAGTATATAGTACATATATATATATATAT [XGTACX_site2945] | 9.43 ± 0.45
